Patent US20030186948A1, “O-linked N-acetylglucosamine pathway in the pathogenesis of neurodegeneration and diabetes” (priority 2000, published 2003)

Molecular target: T1, recombinant O-GlcNAcase (Mus musculus, UniProt Q9EQQ9)
T1 sequence (Q9EQQ9 1-916): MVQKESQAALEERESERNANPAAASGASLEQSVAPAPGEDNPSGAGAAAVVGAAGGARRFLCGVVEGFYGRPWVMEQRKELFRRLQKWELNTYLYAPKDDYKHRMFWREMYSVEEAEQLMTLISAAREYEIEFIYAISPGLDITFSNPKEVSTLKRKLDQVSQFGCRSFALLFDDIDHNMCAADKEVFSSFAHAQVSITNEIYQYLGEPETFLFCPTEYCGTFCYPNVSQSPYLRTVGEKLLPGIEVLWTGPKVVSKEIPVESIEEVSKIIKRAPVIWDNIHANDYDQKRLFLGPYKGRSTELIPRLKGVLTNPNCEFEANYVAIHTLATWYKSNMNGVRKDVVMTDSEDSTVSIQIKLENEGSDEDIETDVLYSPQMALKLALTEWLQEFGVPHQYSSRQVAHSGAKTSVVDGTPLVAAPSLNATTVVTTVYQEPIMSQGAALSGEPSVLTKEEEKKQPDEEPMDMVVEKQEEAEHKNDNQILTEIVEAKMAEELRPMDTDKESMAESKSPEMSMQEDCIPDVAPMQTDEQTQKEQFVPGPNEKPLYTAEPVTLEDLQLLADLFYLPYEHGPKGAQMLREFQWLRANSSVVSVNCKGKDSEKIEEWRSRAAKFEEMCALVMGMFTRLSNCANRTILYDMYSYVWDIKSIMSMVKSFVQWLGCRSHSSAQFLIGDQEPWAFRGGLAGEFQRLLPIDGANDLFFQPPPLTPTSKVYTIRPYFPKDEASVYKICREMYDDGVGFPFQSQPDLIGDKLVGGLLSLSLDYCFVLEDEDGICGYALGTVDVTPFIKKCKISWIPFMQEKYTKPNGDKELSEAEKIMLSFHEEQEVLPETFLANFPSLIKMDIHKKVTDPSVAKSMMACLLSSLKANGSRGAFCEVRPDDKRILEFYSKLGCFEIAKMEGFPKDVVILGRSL

Row | Compound | type of inhibition of O-GlcNAcase
1 | CN(N=O)C(=O)N[C@H]1C(O)O[C@H](CO)[C@@H](O)[C@@H]1O (mixture of isomers) [streptozotocin] | noncompetitive inhibitor
2 | CC(=O)N[C@H]1/C(=N/OC(=O)Nc2ccccc2)O[C@H](CO)[C@@H](O)[C@@H]1O [PUGNAC] | competitive kinetics
